# Measurements: paper PMC13040083, “Single-molecule dynamics reveal ATP binding alone powers substrate translocation by an ABC transporter” (Nature Communications, 2026)
# Biological target: OppA (AF555/AF647-labeled LlOppA A209C/S441C) (Lactococcus lactis subsp. lactis, UniProt Q07741, A231C/S463C)
structure (smiles),measurement,value
CC(C)C[C@H](NC(=O)[C@H](CCC(=O)O)NC(=O)[C@@H](NC(=O)[C@H](CO)NC(=O)[C@H](CCCCN)NC(=O)[C@H](CCC(N)=O)NC(=O)[C@H](Cc1ccc(O)cc1)NC(=O)[C@H](CCCNC(=N)N)NC(=O)[C@@H](N)CCCNC(=N)N)[C@@H](C)O)C(=O)O,Kd,200 to 900 nM
